From the supplement of paper PMC4604168 (melanoma cell lines) come the findings set out here.

Molecules are shown by their SMILES. The list shows a part of the results. Most values come without repeats; read them as rough.
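Also: cells treated in 1,536-well plates, then fixed and DAPI-stained, with nuclei counted from automated high-throughput microscope images.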

For this test, the system named is A375. Description: cell count relative to DMSO control; melanoma cells; higher = more viable cells. To be noted: library dose: standard library concentration; 72 h.
On to `COc1ccc(COc2ccc(Cc3cnc(N)nc3N)cc2OC)cc1` + O=C(Oc1ccc([N+](=O)[O-])cc1)N1CCC(C(O)(c2ccc3c(c2)OCO3)c2ccc3c(c2)OCO3)CC1 [JZL184] (first compound 5 µM, partner dose 5 µM), for which the cell count was 83.5%.

As to `Clc1ccc(Nc2nnc(Cc3ccncc3)c3ccccc23)cc1` [vatalanib] + C/C(O)=C(\C#N)C(=O)Nc1cc(Br)ccc1Br [LFM-A13] (first compound 10 µM, partner dose 10 µM), the cell count worked out at 98.5%.

Turning to `Nc1ccn([C@@H]2O[C@H](CO)[C@@H](O)C2(F)F)c(=O)n1` [gemcitabine] + C[As](C)SC[C@H](NC(=O)CC[C@H](N)C(=O)O)C(=O)NCC(=O)O [Darinaparsin] (first compound 0.002 µM, partner dose 2 µM), the cell count was 72.3%. The compound `Cc1cc(Nc2cc(N3CCN(C)CC3)nc(Sc3ccc(NC(=O)C4CC4)cc3)n2)n[nH]1` [Tozasertib] + Cc1cc(SCc2sc(-c3ccc(C(F)(F)F)c(F)c3)nc2C)ccc1OCC(=O)O [GW0742] (first compound 0.03 µM, partner dose 10 µM) showed a cell count of 117%.
